About 5,000 (1.2%) of roughly 410,000 compounds were called active. This list was built around the results that the source calls inconclusive (neither active nor inactive); the mix of calls is not that of the screen. The call rests on the fitted dose curve; in most records, active means well fitted inhibition curve with a large enough effect; inconclusive means small, poorly fitted or top-dose-only effect; inactive means no such curve, though single readings can be large or run the other way. Potencies beside an inconclusive call are fits to weak or partial responses and may not hold up.
assay: qHTS for Inhibitors of TGF-b; conditions: HepG2 CAGA-GFP TGF-b/SMAD3 reporter, GFP fluorescence, 18 h, TGF-beta stimulated, 500 pg/mL final; series mostly up to 46.1 µM; further: nearly all actives have a fitted effect of over 65% in size
Summary of the method: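 First, reporter cells (HEPG2 CAGA-GFP) rested 2 h at 37 degrees C. Next, compounds were pinned in and TGF-beta added to 500 pg/mL final. After 18 h, GFP was imaged per cell and summed per well.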
Potency means the concentration at half of the fitted maximal effect; tags describe the fitted curve by direction and shape.

Row | SMILES | Potency
1 | Cc1ccc(OCc2nc(-c3ccccn3)no2)c(Br)c1 | inactive
2 | Cc1noc(-c2ccccc2)c1NC(=O)Nc1ccc(Cl)cc1 | inconclusive: 11.2 µM [inhibitor, partial curve, poor fit]
3 | Cc1ccc(NS(=O)(=O)c2ccc(C(=O)N3CC(C)CC(C)C3)cc2)cc1 (stereo unspecified) | inactive
4 | CCc1ccccc1N1C(=O)C2CC=CCC2C1=O (stereo unspecified) | inactive
5 | CCN(CC(=O)Nc1cc(Cl)ccc1C)C(=O)C1COc2ccccc2O1 (stereo unspecified) | inconclusive: 25.1 µM [inhibitor, single point]
6 | CCOC(=O)c1noc2ncnc(N3CCN(c4cccc(C(F)(F)F)c4)CC3)c12 | inconclusive: 15.8 µM [inhibitor, single point]
7 | O=C(CSC1=NCCS1)N1N=C(c2cccs2)CC1c1ccc(F)cc1 (stereo unspecified) | inconclusive: 6.31 µM [inhibitor, partial curve, poor fit]
8 | CC(=O)c1ccc(NC(=O)c2cccc(N3C(=O)c4ccccc4C3=O)c2)cc1 | inconclusive: 3.55 µM [inhibitor, full curve, poor fit]
9 | CN(C)CCNC(=O)c1cccc(-c2cnc3c(NC=O)cc(/C=C/c4ccccc4)cn23)c1 | inconclusive: 35.5 µM [inhibitor, single point]
10 | COc1ccc(CC(=S)NCCc2ccccc2)cc1 | inactive
11 | CCn1c(COc2ccccc2C)nnc1SCC(=O)N1CCN(c2ccccc2)CC1 | inconclusive: 35.5 µM [inhibitor, single point]
12 | CCOC(=O)N1CCN(C(=O)c2ccc3c(=O)n(Cc4ccc(Cl)cc4)c(=S)[nH]c3c2)CC1 | inconclusive: 4.47 µM [inhibitor, partial curve, poor fit]
13 | CCOC(=O)N1CCN(C2=C(NS(=O)(=O)c3ccccc3)C(=O)c3ccccc3C2=O)CC1 | inconclusive: 31.6 µM [inhibitor, single point]
14 | CC(=O)c1cc(-c2ccc(F)cc2)n(CC(=O)NCc2ccc(C)cc2)c1C | inactive
15 | COc1ccc2c(C)c(C(=O)N3CCN(Cc4ccccc4)CC3)oc2c1 | inconclusive: 7.08 µM [inhibitor, partial curve]
16 | COc1cccc([C@H]2Nc3ccc(S(=O)(=O)Nc4cc(C)ccc4C)cc3[C@H]3C=CC[C@H]32)c1 | inconclusive: 31.6 µM [inhibitor, single point]
17 | Cc1ccc(C(=O)N/N=C/c2ccc(OC(=O)c3ccccc3Cl)cc2)cn1 | inconclusive: 5.62 µM [inhibitor, partial curve, poor fit]
18 | O=C(/C(=C/O)N=Nc1ccccc1Cl)c1ccccc1 | inconclusive: 35.5 µM [inhibitor, single point]
19 | CC(=O)Nc1nnc(CCS(=O)(=O)c2ccc(C)cc2)s1 | inactive
20 | NC(=O)c1cc2c3ccccc3ccn2c1-c1ccccc1 | inconclusive: 11.2 µM [inhibitor, partial curve, poor fit]
21 | CCn1c(C)nc2cc(C(=O)NNC(=O)c3ccc(C)cc3)ccc21 | inactive
22 | Cc1noc(C)c1COc1cccc(C(=O)N(C)Cc2cccs2)c1 | inactive
23 | CCOC(=O)COc1ccc(S(=O)(=O)N2CCN(c3ccc(OC)cc3)CC2)cc1 | inconclusive: 2.82 µM [inhibitor, single point]
24 | Cc1ccc(-c2nc(NCCN(C)C)c3ccccc3n2)cc1 | inconclusive: 35.5 µM [inhibitor, single point]

Row | SMILES | Potency
25 | Cc1ccccc1-c1nn2c(=O)cc(CN3CCN(C(=O)c4ccccc4Br)CC3)nc2s1 | inconclusive: 17.8 µM [inhibitor, partial curve, poor fit]
26 | O=C(CCN1C(=O)S/C(=C/c2ccc(Cl)cc2)C1=O)N1CCOCC1 | inconclusive: 5.62 µM [inhibitor, single point]
27 | COc1ccccc1C1SCCN1S(=O)(=O)c1ccccc1 (stereo unspecified) | inactive
28 | COc1ccc(NC(=O)c2c(C)oc3ccc(O)c(CN4CCCC(C)C4)c23)cc1 (stereo unspecified) | inconclusive: 35.5 µM [inhibitor, single point]
29 | COc1ccc(C(C)(O)c2nc(-c3ccc(Cl)cc3)cs2)cc1 (stereo unspecified) | inactive
30 | Cc1cc(N2CCN(c3ccccc3)CC2)nc(-c2ccccc2)n1 | inactive
31 | CCc1ccc(-c2ccc3nnc(SCC(=O)Nc4cccc(C(C)=O)c4)n3n2)cc1 | inactive
32 | Cc1nc2c(C(=O)NCc3ccc4c(c3)OCO4)c[nH]n2c(=O)c1Cc1ccccc1F | inconclusive: 15.8 µM [inhibitor, single point]
33 | O=C(COC(=O)Cn1cnc2ccccc2c1=O)NNC(=O)c1ccc(Br)cc1 | inconclusive: 3.55 µM [inhibitor, single point]
34 | C1=CCC(CN2CCN(C3CCCCCC3)CC2)CC1 (stereo unspecified) | inconclusive: 35.5 µM [inhibitor, single point]
35 | COc1ccc(-c2[nH]ncc2CN2CCCCCCC2)c(OC)c1 | inconclusive: 35.5 µM [inhibitor, single point]
36 | Cc1cc2nc(C3CCCCC3)c(CC(C)(C)C)n2c(C)c1Br | inactive
37 | CCC(C)NC(=S)N(CCc1ccccc1)Cc1cc2cc(OC)c(OC)cc2[nH]c1=O (stereo unspecified) | inconclusive: 35.5 µM [inhibitor, single point]
38 | O=C(C1CCN(c2ncnc3c2nc2n3CCCCC2)CC1)N1CCN(c2ccccc2)CC1 | inconclusive: 14.1 µM [inhibitor, partial curve]
39 | COc1cccc(NC(=O)C2(C)CCN2C(=O)CC2CC2)c1 (stereo unspecified) | inactive
40 | Cc1ccc(-n2nnnc2Sc2nc([N+](=O)[O-])nn2C)c(C)c1 | inconclusive: 1.26 µM [inhibitor, full curve]
41 | COc1ccc(Cl)cc1NC(=O)CCNC(=O)Cn1ccc2ccccc2c1=O | inconclusive: 11.2 µM [inhibitor, single point]
42 | COc1ccc(Nc2nc(-c3c(C)nc4ncccn34)cs2)cc1 | inconclusive: 5.01 µM [inhibitor, partial curve, poor fit]
43 | Cc1cccc(C)c1OCC(O)CNC(C)C (stereo unspecified) | inactive
44 | COc1ccc(CC(=O)NCCc2csc(-c3cccc(F)c3)n2)cc1OC | inactive
45 | CN1CCN(CCCc2c3c(cc4c2CCC4)CCC3)CC1 | inactive
46 | CC1CN=C(c2ccccc2)O1 (stereo unspecified) | inactive
47 | CCCCCCCCS(=O)c1sc2nc(C)cc(C)c2c1N (stereo unspecified) | inconclusive: 2.51 µM [inhibitor, full curve, poor fit]
48 | Cc1cc(C)cc(OCC(=O)NCC2(N3CCOCC3)CCCCC2)c1 | inactive

Row | SMILES | Potency
49 | COc1ccc([C@@H]2Sc3ccccc3N(CCN(C)C)C(=O)[C@@H]2OC(C)=O)cc1 | inactive
50 | N#Cc1c(-c2ccc(Cl)cc2)ccn2nc(C3CCCCC3)nc12 | inactive
51 | O=C(Cn1c(SCCOc2ccccc2Cl)nc2ccccc21)N1CCCCC1 | inactive
52 | COC(=O)C1CN(C(=O)COc2ccc(Cl)cc2Cl)c2ccccc2O1 (stereo unspecified) | inconclusive: 35.5 µM [inhibitor, single point]
53 | O=C(NC(=S)NC1CCSC1=O)c1cccs1 (stereo unspecified) | inactive
54 | CCCN(C(=O)NCc1noc2ccc(C)cc12)c1ccc(Cl)c(Cl)c1 | inconclusive: 12.6 µM [inhibitor, partial curve, poor fit]
55 | O=C(CSC1=NS(=O)(=O)c2cc(F)ccc2N1)NCc1ccc(F)cc1 | inactive
56 | COc1cccc(/C=C/c2nccc3ccccc23)c1OC | inactive
57 | Cc1cc(C)c2c(n1)SCC(=O)N2CC(=O)NCCC1=CCCCC1 | inconclusive: 3.55 µM [inhibitor, partial curve, poor fit]
58 | CCCc1cnc(Nc2nc(C(N)Cc3ccc(OC)cc3)cs2)nc1 (stereo unspecified) | inconclusive: 35.5 µM [inhibitor, single point]
59 | COc1ccc(N2CCN(C(=O)c3nn(C)c4c3CSc3ccccc3-4)CC2)cc1 | inconclusive: 12.6 µM [inhibitor, partial curve]
60 | CC1=C(C(=O)OCc2ccccc2)C(c2ccccc2Cl)NC(=O)N1CCCCCC(=O)O (stereo unspecified) | inactive
61 | CN(CC(=O)Nc1ccc(SC(F)F)cc1)C1CCCCC1 | inactive
62 | O=C(NNC(=O)c1cc(-c2ccc(Cl)cc2)nc2ccccc12)c1csc(N2CCOCC2)n1 | inactive
63 | CCc1ccc2c(CC(=O)Nc3cccc(S(=O)(=O)N4CCOCC4)c3)coc2c1 | inconclusive: 35.5 µM [inhibitor, single point]
64 | CCOc1ccc(NC(=S)Nc2cccc3ccccc23)cc1 | inactive
65 | CCN(CC)c1ccc(NC(=O)c2sc3nc(-c4ccccc4)cn3c2C)cc1 | inconclusive: 7.08 µM [inhibitor, partial curve]
66 | CCOC(=O)c1cccc(NC(=O)NCc2ccc3c(c2)CCN3C(=O)CC)c1 | inconclusive: 15.8 µM [inhibitor, single point]
67 | CCCn1c2ccccc2c2cnn(CC(=O)NCCc3cc(OC)ccc3OC)c(=O)c21 | inconclusive: 12.6 µM [inhibitor, partial curve, poor fit]
68 | COc1ccccc1C(=O)NC(=S)Nc1ccc(Cc2ccncc2)cc1 | inconclusive: 3.98 µM [inhibitor, partial curve, poor fit]
69 | Cc1ccc(NC(=O)c2ccccc2SCC(=O)N2CCCC2)cc1S(=O)(=O)N(C)C | inconclusive: 1 µM [inhibitor, full curve, poor fit]
70 | Cc1cc(C2=NNC(=NCCc3ccccc3)SC2)c(C)n1CC1CCCO1 (stereo unspecified) | inconclusive: 5.62 µM [inhibitor, full curve, poor fit]
71 | COc1cccc(-c2nc(CS(=O)(=O)CC(=O)NCCCc3ccccc3)c(C)o2)c1 | inconclusive: 7.94 µM [inhibitor, partial curve, poor fit]

From PubChem BioAssay AID588855 (National Center for Advancing Translational Sciences (NCATS), 2011)
